{
  "source": "PubChem BioAssay AID485297",
  "about": "(National Center for Advancing Translational Sciences (NCATS), 2010)",
  "note": "Where “and” joins values, the source holds several entries; their conditions need not be identical. Identical values can stand only once. Screen size: about 320,000 compounds; about 9,100 (2.8%) were called active. The inconclusive results got no clear call from the source; some entries with a clear call stand among them for comparison. Calls come from the whole dose curve; as a rule, active = well fitted activation curve with a large enough effect; inconclusive = small, poorly fitted or top-dose-only effect; inactive = no such curve, though single readings can be large or run the other way. Potencies beside an inconclusive call are fits to weak or partial responses and may not hold up. Potency is the fitted concentration of half-maximal effect; tags give direction and shape of the fitted curve.",
  "data": [
    {"assay": "qHTS Assay for Rab9 Promoter Activators; note: nearly all actives have a fitted effect of over 60% in size", "conditions": "Huh7 Rab9 promoter-luciferase reporter, luminescence, 24 h; series mostly up to 9.22 µM", "summary_of_the_method": "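Cells were plated at 1500 per well in reduced-serum medium with 10% FBS and left 2 h. Compound in DMSO was then added for 24 h at 37 °C. Reporter signal was read by luminescence after 10 min with luciferase detection reagent.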", "values": [
      {"smiles": "COc1ccc(Oc2nccc(-c3ccc(F)cc3)c2C#N)cc1", "Potency": "inactive"},
      {"smiles": "COc1cccc(CC(=O)Nc2nc(C)cs2)c1", "Potency": "inconclusive: 6.31 µM [activator, single point]"},
      {"smiles": "CCOc1ccc(NC(=O)c2ccc3nccnc3c2)cc1", "Potency": "inconclusive: 3.98 µM [activator, single point]"},
      {"smiles": "COC(=O)c1ccnc(SCC(=O)c2ccccc2)c1", "Potency": "active: 2.82 µM"},
      {"smiles": "COc1cccc(NC(=O)c2c(C)nn(-c3ccccc3)c2Cl)c1", "Potency": "inconclusive: 2.82 µM [activator, partial curve]"},
      {"smiles": "O=C(CC1C(=O)NCCN1Cc1cccc(F)c1)NCCCCCN1CCOCC1", "note": "(stereo unspecified)", "Potency": "inactive"},
      {"smiles": "Fc1ccc(/C=N/NC2=Nc3cccc4cccc2c34)cc1", "Potency": "active: 1.58 µM"},
      {"smiles": "CC(C)(C)c1nc2c(Br)cc(Br)cc2c(=O)o1", "Potency": "inconclusive: 1.26 µM [activator, single point]"},
      {"smiles": "Cc1cc(OCC(O)CN2CCCC2)cc(C)c1Cl", "note": "(stereo unspecified)", "Potency": "inactive"},
      {"smiles": "COc1cc(OC)c2cc(C(=O)N/N=C/c3cccc(OC)c3O)[nH]c2c1", "Potency": "inactive"},
      {"smiles": "Cc1ccc2c(c1)C1CN(C)CCC1N2C(=O)COc1ccccc1F", "note": "(stereo unspecified)", "Potency": "inactive"},
      {"smiles": "CC(C)(C)C(=O)Nc1ccc(C(=O)Nc2cccnc2)cc1", "Potency": "active: 3.98 µM"},
      {"smiles": "Oc1ccc(/C=C/c2cc(O)cc(O)c2)cc1", "Potency": "inconclusive: 3.98 µM [activator, single point] and inconclusive: 29.1 µM [activator, single point]"},
      {"smiles": "Cc1ccc(CNc2ccc(N3CCOCC3)c(C(=O)O)c2)s1", "Potency": "inconclusive: 1.26 µM [activator, single point]"},
      {"smiles": "CCN(c1ccccc1)S(=O)(=O)c1cccc(C(=O)NCc2ccccc2CN2CCOCC2)c1", "Potency": "inactive"},
      {"smiles": "Cc1cc(C(=O)N/N=C2\\CC(=O)c3ccccc32)c(C)n1-c1ccc(F)cc1", "Potency": "inconclusive: 3.55 µM [activator, partial curve]"},
      {"smiles": "Brc1ccc(-c2ccc(/C=N/Nc3nc4ccccc4[nH]3)o2)cc1", "Potency": "inconclusive: 3.98 µM [activator, partial curve]"},
      {"smiles": "C/C(=N/NS(=O)(=O)c1ccc(Br)cc1)c1ccc(NC(=O)c2ccc(C)o2)cc1", "Potency": "inactive"},
      {"smiles": "Cc1nn(-c2ccccc2)c2sc(C(=O)NC3CC3)cc12", "Potency": "inconclusive: 2.82 µM [activator, partial curve]"},
      {"smiles": "Cc1nnc(NC(=O)CSc2ccc(-c3ccco3)nn2)s1", "Potency": "inactive"},
      {"smiles": "O=c1sc(N2CCN(c3ccc(F)cc3)CC2)nc2ccsc12", "Potency": "inconclusive: 3.55 µM [activator, single point]"},
      {"smiles": "COc1ccc(/C=N/Nc2nc3ccccc3[nH]2)cc1OC", "Potency": "inconclusive: 3.55 µM [activator, single point]"},
      {"smiles": "O=C(O)COc1ccc(/C=C/c2ccc3cccc([N+](=O)[O-])c3n2)cc1", "Potency": "inactive"},
      {"smiles": "Cc1ccnc(Nc2nc(-c3ccc(O)cc3)cs2)c1", "Potency": "active: 3.16 µM"},
      {"smiles": "O=C(NC(=S)NC1CCCCC1)c1ccccc1", "Potency": "inconclusive: 5.62 µM [activator, single point]"},
      {"smiles": "COc1ccccc1C(=O)Nc1cc2cc(Cl)ccc2oc1=O", "Potency": "inconclusive: 3.16 µM [activator, single point]"},
      {"smiles": "CCCN(CCC)CCCNC(=O)Cn1cnc2sc(C)c(S(=O)(=O)N3CCOCC3)c2c1=O", "Potency": "inactive"},
      {"smiles": "NS(=O)(=O)c1ccc(NC(=S)NC(=O)c2ccc(-c3ccccc3)cc2)cc1", "Potency": "inactive"},
      {"smiles": "Cc1cccc(NC(=O)CCCc2ccccc2)c1", "Potency": "inconclusive: 2.82 µM [activator, partial curve]"},
      {"smiles": "Cc1cc(N=Nc2ccc(Cl)cc2)cc(CN2CCOCC2)c1O", "Potency": "inactive"},
      {"smiles": "Cc1ccc(NC(=O)c2nc3nccc(C)n3n2)c(C)c1", "Potency": "inconclusive: 3.98 µM [activator, partial curve]"},
      {"smiles": "CCC(=O)N1N=C(c2ccc(NS(C)(=O)=O)cc2)CC1c1ccc(N(C)C)cc1", "note": "(stereo unspecified)", "Potency": "inconclusive: 3.55 µM [activator, single point]"},
      {"smiles": "CN(C)N1C(N)=C(C#N)C(c2ccccc2F)C2=C1CC(C)(C)CC2=O", "note": "(stereo unspecified)", "Potency": "inactive"},
      {"smiles": "O=C1CCCN1c1ccc(S(=O)(=O)NCc2ccc(F)cc2)cc1", "Potency": "inactive"},
      {"smiles": "COc1cccc(OCc2cc(C(=O)NC3CCOCC3)no2)c1", "Potency": "inconclusive: 3.98 µM [activator, partial curve]"},
      {"smiles": "CCCc1cc(=O)oc2c(C)c(OCC(=O)Nc3ccccn3)ccc12", "Potency": "inconclusive: 2.51 µM [activator, partial curve]"},
      {"smiles": "CN1CCN(c2nc3ccccc3nc2C(C#N)S(=O)(=O)c2ccccc2)CC1", "note": "(stereo unspecified)", "Potency": "inactive"},
      {"smiles": "COc1ccc2nc(SCc3ccccc3C)nc(C)c2c1", "Potency": "inconclusive: 5.62 µM [activator, single point]"},
      {"smiles": "O=C(COc1ccc(C(=O)c2ccccc2)cc1)NCC(=O)Nc1ccccc1Br", "Potency": "inactive"},
      {"smiles": "COc1ccc(/C=C/C(=O)NC2CCCCCC2)cc1S(=O)(=O)N1CCOCC1", "Potency": "inconclusive: 3.16 µM [activator, single point]"},
      {"smiles": "CCn1cc(C(=O)NC2CCC(C)CC2)c(=O)c2cc(S(=O)(=O)N3CCCCC3)ccc21", "note": "(stereo unspecified)", "Potency": "inconclusive: 2.51 µM [activator, partial curve]"},
      {"smiles": "Cc1c(C(=O)NCc2ccco2)sc2nc(-c3ccccc3)cn12", "Potency": "inconclusive: 3.98 µM [activator, single point]"},
      {"smiles": "Cc1cc(NC(=O)c2ccc(NC(=O)C3CCCO3)cc2)ccc1Br", "note": "(stereo unspecified)", "Potency": "inconclusive: 0.708 µM [activator, full curve, poor fit]"},
      {"smiles": "COc1ccccc1NC(=O)Cn1nnc2sc3c(c2c1=O)CC(C)(C)OC3", "Potency": "inactive"},
      {"smiles": "Cc1cc(C)c2sc(NC(=O)C3=COCCO3)nc2c1", "Potency": "active: 0.447 µM"},
      {"smiles": "CC(C)N(Cc1ccccc1)S(=O)(=O)c1ccc(F)cc1", "Potency": "inactive"},
      {"smiles": "COc1ccccc1NC(=O)CSc1ccc(-c2cccs2)nn1", "Potency": "inactive"},
      {"smiles": "CCCc1ccc(OC(=O)c2ccc(O)cc2Cl)cc1", "Potency": "active: 1 µM"},
      {"smiles": "O=c1cc(-c2ccc3c(c2)OCO3)oc2ccccc12", "Potency": "active: 3.55 µM"},
      {"smiles": "O=C(CSc1nnc(-c2ccccc2)o1)N1CCOCC1", "Potency": "inconclusive: 6.31 µM [activator, single point]"},
      {"smiles": "CCOc1ccc2nc(N3CCCC(C(=O)NC4CCCC4)C3)sc2c1", "note": "(stereo unspecified)", "Potency": "inconclusive: 3.16 µM [activator, partial curve]"}
    ]}
  ]
}
